The structures appear in SMILES notation. This is one part of the list.

The assay concerns HSkMC (human skeletal muscle cells). In words: cytotoxicity call (relative viability < 0.9). Conditions: 10 µM.
As to `C[C@@H]1CN([C@@H](C)CO)C(=O)Cc2cc(NC(=O)Nc3ccc(C(F)(F)F)cc3)ccc2O[C@@H]1CN(C)CC1CCCCC1`, the cytotoxicity call is “inactive”. With `C[C@@H]1CN([C@H](C)CO)C(=O)c2cc(NC(=O)Nc3cccc4ccccc34)ccc2O[C@H]1CN(C)S(=O)(=O)c1ccccc1` the entry was “inactive”; with `O=C(NCc1ccncc1)C(=O)NC[C@H]1OCCN1S(=O)(=O)c1ccc(F)cc1`, “inactive”. Consider `CCOC(=O)N(C)C[C@@H]1OCc2cnnn2CCCC(=O)N([C@H](C)CO)C[C@H]1C`, for which the cytotoxicity call is “inactive”.

In the case of `C[C@H]1CN([C@@H](C)CO)C(=O)CCCn2cc(nn2)CO[C@@H]1CN(C)C(=O)Nc1ccccc1C(F)(F)F`, the cytotoxicity call is “inactive”. Take `CC1CCC2(OC1)OC1CC3C4CCC5CC(O)CCC5(C)C4CCC3(C)C1C2C` (centres undefined): the cytotoxicity call is “inactive”. As to `COc1ccc(CCN(C)CCCOc2ccc(S(=O)(=O)c3c(C(C)C)cn4ccccc34)cc2)cc1OC`, the cytotoxicity call is “active”. On to `C[C@H](CO)N1C[C@H](C)[C@H](CN(C)Cc2ccccc2)Oc2ccc(NC(=O)CCCN(C)C)cc2C1=O`, for which the cytotoxicity call was “inactive”. As for `Cc1nc2sccn2c(=O)c1CCN1CCC(=C(c2ccc(F)cc2)c2ccc(F)cc2)CC1`, the cytotoxicity call is “inactive”.

Consider `S=C(c1cccs1)N1CCCC1`, for which the cytotoxicity call was “inactive”. As for `C[C@H](CO)N1C[C@H](C)[C@H](CN(C)Cc2ccc(-c3ccccc3)cc2)Oc2c(NC(=O)Nc3ccc(F)cc3)cccc2C1=O`, the cytotoxicity call was “inactive”. On to `NC(=S)N[C@H]1CCS(=O)(=O)C1`, for which the cytotoxicity call was “inactive”. Consider `C=CCC[C@@H](Cc1ccc(F)cc1)C(=O)OC[C@@H](Cc1c[nH]c2ccccc12)NC(=O)[C@@H](CC=C)CC(=O)N(CCO)Cc1ccccc1`, for which the cytotoxicity call is “active”. For the molecule `C[C@H](O)C#Cc1ccc2c(c1)O[C@@H](CN(C)C(=O)c1ccccc1)[C@@H](C)CN([C@@H](C)CO)S2(=O)=O`, the cytotoxicity call is “inactive”.

Consider `O=C(C[C@@H]1CC[C@@H]2[C@H](COC[C@@H](O)CN2C(=O)c2ccccc2F)O1)N1CCN(c2ccccc2)CC1`, for which the cytotoxicity call was “inactive”. For `C[C@H](CO)N1C[C@H](C)[C@H](CN(C)C(=O)Nc2ccc(C(F)(F)F)cc2)OCCCC[C@H](C)Oc2ccc(NC(=O)C3CCCCC3)cc2C1=O`, the cytotoxicity call was “inactive”.

Consider `C[C@@H]1CN([C@@H](C)CO)C(=O)c2cc(C#CCN(C)C)cnc2O[C@H]1CN(C)C(=O)CN1CCOCC1`, for which the cytotoxicity call is “inactive”. `CCS(=O)(=O)Nc1ccc2c(c1)C(=O)N(C)C[C@H](OC)[C@H](C)CN(Cc1ccccn1)[C@H](C)CO2`: the cytotoxicity call is “inactive”. The value for `C[C@@H](C(=O)N(C)C[C@@H]1OCc2ccccc2-c2c(n(C)c3ccccc23)C(=O)N([C@@H](C)CO)C[C@@H]1C)c1ccccc1` was “inactive”; that for `C[C@H]1CCCCO[C@H](CN(C)Cc2ccc3c(c2)OCO3)[C@@H](C)CN([C@@H](C)CO)C(=O)c2cc(NC(=O)c3ccccc3)ccc2O1` was “inactive”. For `CC(C)CC#Cc1ccc2c(c1)O[C@H](CN(C)C(=O)c1cccnc1)[C@@H](C)CN([C@H](C)CO)S2(=O)=O`, the cytotoxicity call is “inactive”. Turning to `O=C1NN=COc2ccccc21`, the cytotoxicity call is “inactive”. Turning to `COc1ccc(S(=O)(=O)N(C)C[C@@H]2OCCCC[C@H](C)Oc3ccc(NS(C)(=O)=O)cc3C(=O)N([C@@H](C)CO)C[C@H]2C)cc1`, the cytotoxicity call was “inactive”.

For `COc1cccc(S(=O)(=O)N2C[C@H](O)COC[C@H]3O[C@H](CC(=O)N4CCOCC4)CC[C@@H]32)c1`, the cytotoxicity call is “inactive”. Consider `O=C(NCO)c1cccnc1`, for which the cytotoxicity call was “inactive”. With `C[C@H](CO)N1C[C@H](C)[C@H](CN(C)C(=O)Nc2ccc(C(C)(C)C)cc2)OCc2cn(nn2)CCCC1=O`, the cytotoxicity call was “inactive”. For `COc1ccccc1-c1ccc2c(c1)O[C@H](CN(C)C(=O)c1ccncc1)[C@@H](C)CN([C@H](C)CO)S2(=O)=O`, the cytotoxicity call is “inactive”. With `O=C(C[C@@H]1C=C[C@H](NS(=O)(=O)c2ccccc2)[C@@H](CO)O1)NCc1ccncn1` the entry was “inactive”; with `C[C@H](NC(=O)N(C)C[C@H]1OCc2ccccc2-c2ccccc2C(=O)N([C@@H](C)CO)C[C@@H]1C)c1ccccc1`, “inactive”.

These data come from the antibiotic and cytotoxicity screens of Wong et al. (2023).
